{
  "source": "PubChem BioAssay AID488969",
  "about": "(Vanderbilt High Throughput Screening Facility, 2010)",
  "note": "In all, about 110,000 compounds were measured (“z-score”: median about -0.1, highest 2% from about 2 on). Some of the results follow. Activity calls are given as the source filed them.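 The calls were made as follows: active = z-score in the third read window above 3 or below -3; inactive = the rest.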",
  "data": [
    {"molecular_target": "Metabotropic glutamate receptor 8 (Rattus norvegicus) (UniProt P70579)", "sequence (P70579 whole entry, looked up)": "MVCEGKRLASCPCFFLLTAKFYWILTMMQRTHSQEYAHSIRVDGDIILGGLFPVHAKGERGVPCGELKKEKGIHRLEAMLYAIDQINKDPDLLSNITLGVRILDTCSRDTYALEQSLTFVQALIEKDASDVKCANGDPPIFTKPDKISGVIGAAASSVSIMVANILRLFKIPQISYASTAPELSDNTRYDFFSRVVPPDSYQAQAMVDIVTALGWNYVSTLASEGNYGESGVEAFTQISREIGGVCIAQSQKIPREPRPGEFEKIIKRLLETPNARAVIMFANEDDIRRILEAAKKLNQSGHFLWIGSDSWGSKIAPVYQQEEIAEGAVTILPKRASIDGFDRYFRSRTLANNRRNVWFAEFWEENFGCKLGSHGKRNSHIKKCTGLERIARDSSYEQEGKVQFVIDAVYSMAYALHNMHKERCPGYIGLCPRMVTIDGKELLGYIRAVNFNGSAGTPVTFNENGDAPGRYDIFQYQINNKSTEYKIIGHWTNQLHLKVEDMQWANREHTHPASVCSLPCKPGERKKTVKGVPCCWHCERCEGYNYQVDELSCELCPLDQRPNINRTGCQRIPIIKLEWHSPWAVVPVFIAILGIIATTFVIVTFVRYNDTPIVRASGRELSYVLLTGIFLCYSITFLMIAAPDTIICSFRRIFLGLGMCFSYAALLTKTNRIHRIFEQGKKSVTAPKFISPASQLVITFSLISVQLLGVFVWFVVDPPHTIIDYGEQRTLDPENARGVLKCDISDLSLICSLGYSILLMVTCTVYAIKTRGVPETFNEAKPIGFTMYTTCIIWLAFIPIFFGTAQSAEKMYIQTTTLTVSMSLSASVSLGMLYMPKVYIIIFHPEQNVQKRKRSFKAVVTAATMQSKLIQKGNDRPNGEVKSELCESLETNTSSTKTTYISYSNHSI", "experiment": "rat mGluR8 modulators via GIRK flux, primary screen, cell-based, thallium flux, HTS (AID 488969)", "conditions": "HEK293 rat mGluR8, GIRK (G protein-gated inwardly rectifying potassium channel) thallium flux, FluoZin2; at 10 µM; stronger effect = higher value; submaximal glutamate (EC20) added with thallium", "values": [
      {"smiles": "CCOC(=O)C(CC)Sc1nnc(COc2ccc(C)cc2)n1-c1ccccc1", "note": "(stereo not given)", "z-score": "active: -3.38"},
      {"smiles": "CCOc1ccc2oc(-c3ccccc3)c(C(=O)N3CCN(CCO)CC3)c2c1", "z-score": -0.457},
      {"smiles": "C=CCC1(O)CC(c2ccco2)NC(c2ccco2)C1CCC", "note": "(stereo not given)", "z-score": 1.08},
      {"smiles": "O=C(NCC(O)CO)c1ccc2[nH]c3ccccc3c2c1", "note": "(stereo not given)", "z-score": -0.419},
      {"smiles": "O=C(Nc1ccccc1)N1CCCN(Cc2ccccc2F)C1", "z-score": 0.97},
      {"smiles": "C=CCOc1nc2c(c(=O)n(C)c(=O)n2C)n1Cc1c(Cl)cccc1Cl", "z-score": -1.34},
      {"smiles": "C/C(=N\\NC(=O)C(=O)Nc1cccc(Cl)c1)c1ccncc1", "z-score": -0.155},
      {"smiles": "CC(CCc1ccccc1)NC(=O)c1cccnc1", "note": "(stereo not given)", "z-score": 0.207},
      {"smiles": "Cc1c(NC(=O)CSc2nnc(N)s2)c(=O)n(-c2ccccc2)n1C", "z-score": -0.284},
      {"smiles": "CCN1CCN(CC(=O)c2c[nH]c3ccc(C)cc23)CC1", "z-score": -0.0926},
      {"smiles": "COc1ccc(C(C(=O)NC2CCCCC2)N(C(=O)Cc2c[nH]c3ccccc23)c2ccccc2C)cc1OC", "note": "(stereo not given)", "z-score": -0.337},
      {"smiles": "CCN1C(c2ccccc2)C(C)C(=O)C(C)C1c1ccccc1", "note": "(stereo not given)", "z-score": -0.186},
      {"smiles": "CCOc1cc(CNC(C)(C)CO)cc(Br)c1OCc1ccc(Cl)cc1Cl", "z-score": 0.463},
      {"smiles": "Cc1ccc2occ(-c3nn[nH]n3)c(=O)c2c1", "z-score": 0.366},
      {"smiles": "Cc1noc(C)c1CSc1nnc(-c2ccccc2F)n1CCc1ccccc1", "z-score": -0.0463},
      {"smiles": "COCCn1c(SCC(=O)Nc2cc(C(C)(C)C)nn2-c2ccccc2)nnc1-c1ccncc1", "z-score": -0.545},
      {"smiles": "COc1ccc(-c2noc(-c3ccccc3C(=O)NCc3ccco3)n2)cc1OC", "z-score": -0.78},
      {"smiles": "CCOc1cccc(C(=O)NC(=S)Nc2cccc(NC(=O)c3ccccc3Cl)c2)c1", "z-score": -0.0995},
      {"smiles": "CN1CCN(C(=O)c2ccccc2-c2nc(-c3ccc(Cl)cc3)no2)CC1", "z-score": 0.244},
      {"smiles": "CN(C)c1ccc(-c2nnn(CC(=O)N3c4ccccc4CCc4ccccc43)n2)cc1", "z-score": -0.231},
      {"smiles": "O=c1ncn(-c2ccccc2F)c2ncccc12", "z-score": 0.251},
      {"smiles": "COC(=O)c1c(NC(=S)Nc2ccc(CC(=O)O)cc2)sc(C)c1C", "z-score": -0.197},
      {"smiles": "O=c1c(Cc2ccc(F)cc2)c(O)ccn1Cc1cccc(Cl)c1", "z-score": -0.0328},
      {"smiles": "O=C(NCCN1C(=O)C2C3C=CC(C3)C2C1=O)N1CCCCC1", "note": "(stereo not given)", "z-score": -0.0759},
      {"smiles": "COc1cc(C(=O)OC(C)C(=O)NCC2CCCCC2)cc(NC(=O)c2ccco2)c1OC", "note": "(stereo not given)", "z-score": -0.304},
      {"smiles": "O=S(Cc1cc(Sc2ccccc2)nc(-c2ccccc2)n1)c1ccccc1", "note": "(stereo not given)", "z-score": -0.92},
      {"smiles": "Cc1c(C(=O)OC(C)CCN(C)C)oc2ccccc12", "note": "(stereo not given)", "z-score": 0.326},
      {"smiles": "COC(=O)c1cnn(-c2nc3c(C)cccc3s2)c1C", "z-score": -0.0689},
      {"smiles": "CCOC(=O)N1CCC(n2c(SCC(=O)Nc3nccs3)nc3ccsc3c2=O)CC1", "z-score": -0.164},
      {"smiles": "Clc1ccc(Cn2ncc3c(N4CCCCC4)ncnc32)c(Cl)c1", "z-score": 0.0977},
      {"smiles": "CC(C)NC(=S)NC1(C)CCS(=O)(=O)C1", "note": "(stereo not given)", "z-score": 0.19},
      {"smiles": "CC(=O)c1cc2c(cc1N/C(=N/S(=O)(=O)c1ccc(C)cc1)c1ccc(Cl)cc1)OCO2", "z-score": -0.128},
      {"smiles": "O=C(CSC(=S)N1CCOCC1)Nc1nc(=O)c2ccccc2s1", "z-score": 0.0572},
      {"smiles": "CCOc1ccc(OCC)c(NC(=O)CSc2nc3c(c(=O)n(C)c(=O)n3C)n2CC)c1", "z-score": -0.252},
      {"smiles": "NC(=O)c1nn(-c2cccc(Cl)c2)c(=O)cc1O", "z-score": -0.141},
      {"smiles": "CN=C(Nc1ccc(Cl)cc1)c1ccc(C(F)(F)F)cc1", "z-score": 0.262},
      {"smiles": "COc1ccc(-n2c(SCC(=O)Nc3ccc4c(c3)OCO4)nc3c(c2=O)SCC3)cc1", "z-score": -0.429},
      {"smiles": "Cc1ccc(OC(=O)c2ccc(C)c(C)c2)cn1", "z-score": 0.22},
      {"smiles": "CC(=O)c1cc(-c2ccccc2)n(CC(=O)N2CCCCC2)c1C", "z-score": -0.111},
      {"smiles": "CSc1nc(N)nc(SCC(=O)c2ccccc2)c1C#N", "z-score": 0.434},
      {"smiles": "O=C(Cn1ncc2c(=O)oc3ccccc3c21)NCCC1=CCCCC1", "z-score": -1.17},
      {"smiles": "CC1CCN(C(=O)CSc2nnc(-c3ccco3)o2)CC1", "z-score": -0.259},
      {"smiles": "O=C1OCc2cc(NC(=O)C34CC5CC(CC(C5)C3)C4)ccc21", "z-score": 0.585},
      {"smiles": "O=C(NCCc1ccccc1)c1ccc2nc(-c3ccco3)c(-c3ccco3)nc2c1", "z-score": -0.154},
      {"smiles": "Cc1ccc(S(=O)(=O)N2CCCC(C(=O)NCc3ccccn3)C2)cc1", "note": "(stereo not given)", "z-score": -0.274},
      {"smiles": "Cc1ccc(Nc2nnc(C(C)(C)C)c(=O)n2N)cc1", "z-score": -0.0615},
      {"smiles": "O=C(Nc1ccc(Br)c(Cl)c1)C1CC1", "z-score": 0.469},
      {"smiles": "c1ccc(-c2nnc3sc(CN4CCc5ccccc54)cn23)cc1", "z-score": -1.18},
      {"smiles": "Cc1ccc(S(=O)(=O)NN2C(=O)/C(=C/c3cccn3C)SC2=S)cc1", "z-score": -0.623},
      {"smiles": "O=C(CSc1nccc(=O)[nH]1)Nc1ccc(F)c([N+](=O)[O-])c1", "z-score": -0.125},
      {"smiles": "CC(C)(C)c1cc(C(=S)N2CCN(CCO)CC2)cc(C(C)(C)C)c1O", "z-score": 1.54},
      {"smiles": "O=C(CSCc1cccc(CSCC(=O)Nc2ccccc2)n1)Nc1ccccc1", "z-score": -0.274},
      {"smiles": "COc1cc2c(cc1NC(=O)CSc1nccn1C)oc1ccccc12", "z-score": -0.679},
      {"smiles": "Cc1ccccc1NC1=C(Cl)C(=O)OC1NC(=O)c1ccccc1", "note": "(stereo not given)", "z-score": -0.315},
      {"smiles": "CCOc1ccc(N(C(=O)Cn2nnc3ccccc32)C(C(=O)NC(C)(C)CC)c2cccn2C)cc1", "note": "(stereo not given)", "z-score": -0.0556}
    ]}
  ]
}
